# Test results from paper PMC6467649 (Molecular pharmaceutics, 2019).
# B1: bile salt export pump (BSEP), p.444A variant (Homo sapiens; V444A) (protein)
# chain: MSDSVILRSIKKFGEENDGFESDKSYNNDKKSRLQDEKKGDGVRVGFFQLFRFSSSTDIWLMFVGSLCAFLHGIAQPGVLLIFGTMTDVFIDYDVELQELQIPGKACVNNTIVWTNSSLNQNMTNGTRCGLLNIESEMIKFASYYAGIAVAVLITGYIQICFWVIAAARQIQKMRKFYFRRIMRMEIGWFDCNSVGELNTRFSDDINKINDAIADQMALFIQRMTSTICGFLLGFFRGWKLTLVIISVSPLIGIGAATIGLSVSKFTDYELKAYAKAGVVADEVISSMRTVAAFGGEKREVERYEKNLVFAQRWGIRKGIVMGFFTGFVWCLIFLCYALAFWYGSTLVLDEGEYTPGTLVQIFLSVIVGALNLGNASPCLEAFATGRAAATSIFETIDRKPIIDCMSEDGYKLDRIKGEIEFHNVTFHYPSRPEVKILNDLNMAIKPGEMTALVGPSGAGKSTALQLIQRFYDPCEGMVTVDGHDIRSLNIQWLRDQIGIVEQEPVLFSTTIAENIRYGREDATMEDIVQAAKEANAYNFIMDLPQQFDTLVGEGGGQMSGGQKQRVAIARALIRNPKILLLDMATSALDNESEAMVQEVLSKIQHGHTIISVAHRLSTVRAADTIIGFEHGTAVERGTHEELLERKGVYFTLVTLQSQGNQALNEEDIKDATEDDMLARTFSRGSYQDSLRASIRQRSKSQLSYLVHEPPLAVVDHKSTYEEDRKDKDIPVQEEVEPAPVRRILKFSAPEWPYMLVGSVGAAVNGTVTPLYAFLFSQILGTFSIPDKEEQRSQINGVCLLFVAMGCVSLFTQFLQGYAFAKSGELLTKRLRKFGFRAMLGQDIAWFDDLRNSPGALTTRLATDASQVQGAAGSQIGMIVNSFTNVTVAMIIAFSFSWKLSLVILCFFPFLALSGATQTRMLTGFASRDKQALEMVGQITNEALSNIRTVAGIGKERRFIEALETELEKPFKTAIQKANIYGFCFAFAQCIMFIANSASYRYGGYLISNEGLHFSYVFRVISAVVLSATALGRAFSYTPSYAKAKISAARFFQLLDRQPPISVYNTAGEKWDNFQGKIDFVDCKFTYPSRPDSQVLNGLSVSISPGQTLAFVGSSGCGKSTSIQLLERFYDPDQGKVMIDGHDSKKVNVQFLRSNIGIVSQEPVLFACSIMDNIKYGDNTKEIPMERVIAAAKQAQLHDFVMSLPEKYETNVGSQGSQLSRGEKQRIAIARAIVRDPKILLLDEATSALDTESEKTVQVALDKAREGRTCIVIAHRLSTIQNADIIAVMAQGVVIEKGTHEELMAQKGAYYKLVTTGSPIS
# Tests used:
# [1] = biological target: bile salt export pump (BSEP), p.444A variant (Homo sapiens, UniProt O95342, V444A); format: biochemical
# [2] = substrate: C[C@H](CCC(=O)NCC(=O)O)[C@H]1CC[C@H]2[C@@H]3[C@H](O)C[C@@H]4C[C@H](O)CC[C@]4(C)[C@H]3C[C@H](O)[C@]12C; experiment: ATP-dependent transport kinetics in Sf9 membrane vesicles; format: biochemical, Homo sapiens
Molecule,IC50 [1] [µM],Km [2] [µM]
CC1=C(CC(=O)O)c2cc(F)ccc2/C1=C\c1ccc([S+](C)[O-])cc1 (centres unmarked) [sulindac],136 ± 25.1,–
B1,–,45.70 ± 25.52
